Experimental data published in patent US20250002570A1 (Innovent, published 2025).

Key:
human VEGF C [1] = target: T1, human VEGF C (human, UniProt P49767 103-227, limits assumed); assay: ELISA blocking: VEGFC-biotin captured on streptavidin plate; blocked receptor VEGFR3-Fc (0.2 ug/mL), detected with anti-human Fc-HRP, OD450
T1 construct: also called hVEGFC; hVEGF C
T1 sequence (looked up): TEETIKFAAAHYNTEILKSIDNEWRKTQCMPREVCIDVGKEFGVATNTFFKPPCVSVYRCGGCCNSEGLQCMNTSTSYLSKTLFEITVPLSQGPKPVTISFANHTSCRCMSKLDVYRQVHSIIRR
Protocol: (§1) SA (streptavidin) was diluted to 1 μg/mL, and 100 μL/well of SA was plated in a microplate at 4° C. overnight. The plate was washed 3 times with PBST and blocked with 3% BSA for 1.5 h. The plate was washed 3 times with PBST, 50 ng/ml of VEGFC-biotin (biotin-labeled human VEGF C) was added, and the plate was incubated for 1.5 h. 50 μL of antibody was incubated with VEGFR2-Fc (with a final concentration of 0.2 μg/mL, Beijing Sino Biological) or VEGFR3-Fc (with a final concentration of 0.2 μg/mL, Beijing Sino Biological) for 20 min in advance, and the mixture was added to the plate. The plate was washed 3 times with PBST, an anti-human FcHRP antibody (diluted in a ratio of 1:10000, BETHYL) was added, and then the plate was incubated for 30 min. The plate was washed 6 times with PBST, the color development was performed with TMB (SOLARBIO) for 5 min, and OD450 nm was read after stopping.

human VEGF C [2] = target: T1, human VEGF C; assay: as above; remark: listed apart in the source
Protocol: as §1

B1: OPT-302 (VEGF-C-trap, VEGFR3-trap molecule) (Fc fusion)
chain: YSMTPPTLNITEESHVIDTGDSLSISCRGQHPLEWAWPGAQEAPATGDKDSEDTGVVRDCEGTDARPYCKVLLLHEVHAQDTGSYVCYYKYIKARIEGTTAASSYVFVRDFEQPFINKPDTLLVNRKDAMWVPCLVSIPGLNVTLRSQSSVLWPDGQEVVWDDRRGMLVSTPLLHDALYLQCETTWGDQDFLSNPFLVHITGNELYDIQLLPRKSLELLVGEKLVLNCTVWAEFNSGVTFDWDYPGKQAERGKWVPERRSQQTHTELSSILTIHNVSQHDLGSYVCKANNGIQRFRESTEVIVHE[human IgG1 Fc not given here]
notes: Positive control; also called OPT-032; positive control molecule
IC50 (human VEGF C [1]): 0.0127 µg/mL | IC50 (human VEGF C [2]): 0.0246 µg/mL

Where two headings read alike, the source gives them in different places.
